Laboratory results taken from the supplement of paper PMC8813932.
Counter-ions that a name gives are not always drawn. This is one part of the list. Single values are uncertain, as repeats are few or missing.

system: Ov4Carbo; test: log2 surviving fraction relative to plate median (drug vs vehicle, or drug+dl922-947 vs dl922-947 alone); ovarian cancer lines: OVCAR4 is platinum-sensitive while Ov4Cis resists cisplatin and Ov4Carbo carboplatin; higher = more cell survival; conditions: dl922-947 oncolytic adenovirus co-treatment: none; compound concentration: 10 uM; 192 h

SMILES	log2 surviving fraction
C[C@@H](c1ncncc1F)[C@](O)(Cn1cncn1)c1ccc(F)cc1F [Voriconazole]	0.461
C=CCOc1ccccc1OCC(O)CNC(C)C (centres undefined) [Oxprenolol HCl]	-0.71
NC(=O)N1c2ccccc2C=Cc2ccccc21 [Carbamazepine (Carbatrol)]	-0.409
CN1C2=CC(=O)/C(=N\NC(N)=O)C=C2CC1S(=O)(=O)O (centres undefined) [Carbazochrome sodium sulfonate]	0.339
COc1ccccc1OCC(O)CO (centres undefined) [Guaifenesin (Guaiphenesin)]	0.453
Cc1ccc(C(=O)Nc2ccc(CN3CCN(C)CC3)c(C(F)(F)F)c2)cc1C#Cc1cnc2cccnn12	-11.7
COc1ccc(C(=O)N2CCCC2=O)cc1 [Aniracetam]	1.33
C[C@H](Cn1cnc2c(N)ncnc21)OCP(=O)(O)O [Tenofovir (Viread)]	0.968
CN(C)CCCN1c2ccccc2CCc2ccc(Cl)cc21 [Clomipramine hydrochloride (Anafranil)]	-4.54
Nc1ccc(S(=O)(=O)Nc2ccccn2)cc1 [Sulfapyridine (Dagenan)]	0.541
Oc1c(Cl)cc(Cl)c2cccnc12 [Chloroxine]	-3.78
CC1(C)S[C@@H]2[C@H](NC(=O)C(C(=O)O)c3ccccc3)C(=O)N2[C@H]1C(=O)O (some centres undefined) [Carbenicillin disodium]	0.365
CCC(C)n1ncn(-c2ccc(N3CCN(c4ccc(OCC5COC(Cn6cncn6)(c6ccc(Cl)cc6Cl)O5)cc4)CC3)cc2)c1=O (centres undefined) [Itraconazole (Sporanox)]	0.518
Oc1ccc(OCc2ccccc2)cc1 [Monobenzone (Benoquin)]	-7.03
C[N+](C)(C)CCO.[Cl-] [Choline Chloride]	0.481
CN1CCC(=C2c3ccccc3CCc3sccc32)CC1 [Pizotifen malate]	-1.15
CO[C@H]1/C=C/O[C@@]2(C)Oc3c(C)c(O)c4c(c3C2=O)C2=NC3(CCN(CC(C)C)CC3)NC2=C(NC(=O)/C(C)=C\C=C\[C@H](C)[C@H](O)[C@@H](C)[C@@H](O)[C@@H](C)[C@H](OC(C)=O)[C@@H]1C)C4=O [Rifabutin (Mycobutin)]	-0.729
C#C[C@]1(O)CC[C@H]2[C@@H]3CCc4cc(O)ccc4[C@H]3CC[C@@]21C [Ethinyl Estradiol]	-1.64
C[C@@H](O[C@H]1OCCN(Cc2n[nH]c(=O)[nH]2)[C@H]1c1ccc(F)cc1)c1cc(C(F)(F)F)cc(C(F)(F)F)c1 [Aprepitant (MK-0869)]	-5.63
Cc1cc(C2CCCCC2)n(O)c(=O)c1 [Ciclopirox ethanolamine]	-12.3

SMILES	log2 surviving fraction
NC(=O)c1ncn([C@@H]2O[C@H](CO)[C@@H](O)[C@H]2O)c1N [Acadesine]	0.481
O=C(O)CCc1nc2ccccc2[nH]1 [Procodazole]	-1.63
Cc1ccnc(NS(=O)(=O)c2ccc(N)cc2)n1 [Sulfamerazine]	-0.932
O=C1O[C@H]([C@@H](O)CO)C([O-])=C1O.[Na+] [Sodium ascorbate]	0.855
CN1[C@@H]2CC[C@H]1C[C@@H](OC(=O)C(CO)c1ccccc1)C2 (some centres undefined) [Atropine]	-2.2
Cc1cnc(C(=O)O)c[n+]1[O-] [Acipimox]	0.785
Cn1c(=O)c2[nH]cnc2n(C)c1=O [Aminophylline (Truphylline)]	-1.23
C[N+](C)(CCOc1ccccc1)Cc1ccccc1.O=C([O-])c1cc2ccccc2cc1O [Bephenium Hydroxynaphthoate]	0.855
Nc1nnc(-c2cccc(Cl)c2Cl)c(N)n1 [Lamotrigine]	-0.405
CC(C)NCC(O)c1ccccc1Cl (centres undefined) [Clorprenaline HCL]	-0.435
O=C(O)c1ccc(-n2nc(-c3ccccc3O)nc2-c2ccccc2O)cc1 [Deferasirox (Exjade)]	-6.87
CN(N=O)C(=O)N[C@@H](C=O)[C@@H](O)[C@H](O)[C@H](O)CO [Streptozotocin (Zanosar)]	0.377
O=C1CC[C@@]2(O)[C@H]3Cc4ccc(O)c5c4[C@@]2(CCN3CC2CC2)[C@H]1O5 [Naltrexone HCl]	-0.21
CCCN1CCCC[C@H]1C(=O)Nc1c(C)cccc1C [Ropivacaine HCl]	-0.161
C[C@]12CC[C@H](O)CC1=CC[C@@H]1[C@@H]2CC[C@]2(C)C(c3cccnc3)=CC[C@@H]12 [Abiraterone (CB-7598)]	1.3
C=CC(=O)N1CCC[C@@H](n2nc(-c3ccc(Oc4ccccc4)cc3)c3c(N)ncnc32)C1	-4.83
Cn1c(=O)c2c(ncn2CC(O)CO)n(C)c1=O (centres undefined) [Dyphylline (Dilor)]	-0.12
C=C1/C(=C\C=C2/CCC[C@]3(C)[C@@H]([C@H](C)/C=C/[C@H](C)C(C)C)CC[C@@H]23)C[C@@H](O)C[C@@H]1O [Doxercalciferol (Hectorol)]	-2.13
O=C(O)c1cc(-c2ccccc2)nc2ccccc12 [Cinchophen]	0.297
